# Where a name gives a salt, the structure may show the parent alone. ± gives the standard deviation of the averaged measurements. In all, about 1,900 compounds were measured (“normalised cell viability (NPI; 0 = phenylarsine oxide control, 1 = DMSO control)”: median about 1, lowest 2% from about 0.039 on). Some of the results follow.
# Tested on: NCI-H1944
# Assay: normalised cell viability (NPI; 0 = phenylarsine oxide control, 1 = DMSO control) (fraction of DMSO control); NCI-H1944 is a non-small cell lung cancer line; higher = more viable cells (less compound toxicity)
# Settings: 6 days
# [1] = glucocorticoid arm: hydrocortisone 2.75 uM co-treatment, compound 1 µM
# [2] = glucocorticoid arm: hydrocortisone 2.75 uM co-treatment, compound 5 µM
# [3] = glucocorticoid arm: hydrocortisone 2.75 uM pre-treated 2 days and continued, compound 1 µM
# [4] = glucocorticoid arm: hydrocortisone 2.75 uM pre-treated 2 days and continued, compound 5 µM
# [5] = glucocorticoid arm: vehicle, compound 1 µM
# [6] = glucocorticoid arm: vehicle, compound 5 µM
# 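Further: CTB read-out in 384-well plates, mean of triplicate wells, normalised per plate against 1 µM phenylarsine oxide and 0.1% DMSO, compounds added 24 h after seeding.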
SMILES,normalised cell viability [1],normalised cell viability [2],normalised cell viability [3],normalised cell viability [4],normalised cell viability [5],normalised cell viability [6]
O=C(c1cccc(Cl)c1F)N1CCN(Cc2cccc(Nc3nccs3)n2)CC1,0.951 ± 0.018,1.033 ± 0.0058,0.983 ± 0.025,1.03 ± 0.015,0.574 ± 0.06,1.027 ± 0.0058
COc1ccc(CCN(C)CCCC(C#N)(c2cc(OC)c(OC)c(OC)c2)C(C)C)cc1OC (racemic) [(±)-Methoxyverapamil hydrochloride],1.007 ± 0.0058,0.998 ± 0.039,1.01 ± 0.01,1.01 ± 0.019,0.9847 ± 0.0042,0.999 ± 0.018
CCCCOC(=O)NS(=O)(=O)c1sc(CC(C)C)cc1-c1ccc(Cn2c(CC)nc3c(C)cc(C)nc32)cc1,1.005 ± 0.0087,1.05 ± 0.021,1.007 ± 0.0058,1.01 ± 0.015,0.99 ± 0.006,1.01 ± 0.015
CO/N=C(\C(=O)N[C@@H]1C(=O)N2C(C(=O)O)=C(CSc3nc(=O)c(O)nn3C)CS[C@H]12)c1csc(N)n1 [Ceftriaxone sodium salt],0.985 ± 0.0052,0.995 ± 0.025,0.849 ± 0.22,0.992 ± 0.0057,0.964 ± 0.0069,0.9743 ± 0.006
Oc1ccccc1O [Pyrocatechol],1.027 ± 0.0058,1.03 ± 0.01,1.02,1 ± 0.025,1.02 ± 0.011,1.02 ± 0.01
COc1cc(OC)c2c(=O)[nH]c(-c3cc(C)c(OCCO)c(C)c3)nc2c1,0.979 ± 0.027,0.976 ± 0.068,0.958 ± 0.045,0.969 ± 0.021,0.9933 ± 0.0083,0.999 ± 0.0017
COc1cccc(NC(=O)/C=C/c2ccc(Cl)cc2)c1,0.953 ± 0.015,0.884 ± 0.026,0.992 ± 0.029,0.941 ± 0.023,0.9757 ± 0.0093,0.9683 ± 0.0067
CCCCN1CCC(COC(=O)c2cc(Cl)c(N)c3c2OCCO3)CC1,0.986 ± 0.012,0.933 ± 0.006,0.998 ± 0.029,0.945 ± 0.0035,0.9857 ± 0.0025,0.993 ± 0.006
NC(CCCP(=O)(O)O)C(=O)O (racemic) [(±)-2-Amino-5-phosphonopentanoic acid],0.987 ± 0.0072,0.9967 ± 0.0031,0.9907 ± 0.0083,0.993 ± 0.0028,0.98 ± 0.0056,0.9857 ± 0.0098
NCC(O)c1ccc(O)c(O)c1 (racemic) [(±)-Norepinephrine (+)bitartrate],0.98 ± 0.012,0.9907 ± 0.0029,0.987 ± 0.011,0.98 ± 0.021,0.985 ± 0.014,0.98267 ± 0.00058
Cc1nc(NC(=O)N2CCC[C@H]2C(N)=O)sc1-c1csc(C(C)(C)C)n1,0.917 ± 0.015,0.732 ± 0.015,0.898 ± 0.022,0.746 ± 0.059,1.002 ± 0.0074,0.9607 ± 0.0086
C=CCN1CCc2cc(O)c(O)cc2C(c2ccccc2)C1 (racemic),0.9573 ± 0.0023,1 ± 0.017,1 ± 0.017,1 ± 0.018,0.9713 ± 0.0011,0.9797 ± 0.0046
O=C1CCC(c2ccc(-n3ccnc3)cc2)=NN1 [Imazodan],1.013 ± 0.0058,1.03,1.01 ± 0.01,1.03 ± 0.011,1.013 ± 0.0058,1.013 ± 0.0058
CCNC(=O)N1CCN(CCCC(c2ccc(F)cc2)c2ccc(F)cc2)CC1 [Amperozide hydrochloride],1.017 ± 0.0058,1.01 ± 0.012,1.017 ± 0.0058,1.02 ± 0.035,0.997 ± 0.012,1.007 ± 0.0058
Fc1ccc(C(OCCCc2cnc[nH]2)c2ccc(F)cc2)cc1,1.001 ± 0.009,0.993 ± 0.029,1.01,1.05 ± 0.075,0.985 ± 0.0062,1 ± 0.01
CNC(=O)c1cc2c(cn1)[nH]c1ccccc12 [N-Methyl-beta-carboline-3-carboxamide],0.9957 ± 0.0011,0.986 ± 0.025,1 ± 0.014,1 ± 0.0087,0.9893 ± 0.0042,0.986 ± 0.001
CC(C)(C)Cn1c(N)nc2ccc(-c3[nH]c(C(C)(C)C)nc3-c3ccc(F)cc3)nc21,0.67 ± 0.018,0.516 ± 0.024,0.675 ± 0.015,0.577 ± 0.01,0.939 ± 0.02,0.795 ± 0.023
OC[C@H]1O[C@H]([S-])[C@H](O)[C@@H](O)[C@@H]1O.[Au+] [Aurothioglucose],0.996 ± 0.0036,0.993 ± 0.032,1 ± 0.018,1.01 ± 0.083,1.003 ± 0.0058,1.01 ± 0.01
CCCN[C@H]1CCc2nc(N)sc2C1 [Pramipexole],0.995 ± 0.018,1 ± 0.0091,1.003 ± 0.0061,0.989 ± 0.037,0.9927 ± 0.006,0.999 ± 0.0017
CCC(=O)N1CCN(C(=O)c2ccccc2)CC1,1,0.995 ± 0.017,1 ± 0.014,0.995 ± 0.022,0.9923 ± 0.0068,0.998 ± 0.0027
CC(=O)c1ccc(S(=O)(=O)NC(=O)NC2CCCCC2)cc1 [Acetohexamide],0.984 ± 0.014,0.991 ± 0.0082,0.9927 ± 0.0071,0.976 ± 0.028,0.987 ± 0.0066,0.9673 ± 0.0068
CCSC(=N)N [S-Ethylisothiourea hydrobromide],1.01 ± 0.01,1.02 ± 0.01,1 ± 0.023,1.01 ± 0.022,0.985 ± 0.002,0.988 ± 0.0082
CNc1ncnc2c1ncn2[C@H]1C[C@H](OP(=O)(O)O)[C@@H](COP(=O)(O)O)O1,0.991 ± 0.0056,0.987 ± 0.029,1 ± 0.016,0.981 ± 0.027,0.996 ± 0.0061,0.9943 ± 0.0047
COc1ccc(CN(CCN(C)C)c2ccccn2)cc1 [Pyrilamine maleate],1.01 ± 0.016,0.988 ± 0.028,1.01 ± 0.011,1.06 ± 0.078,1.007 ± 0.0058,1.013 ± 0.0058
CCCNC(C)C(=O)Nc1ccccc1C (configuration not stated) [Prilocaine hydrochloride],0.9977 ± 0.0025,1.01 ± 0.015,0.834 ± 0.3,0.991 ± 0.017,1.013 ± 0.0058,1.01 ± 0.011
CC(COc1ccccc1)N(CCCl)Cc1ccccc1 (configuration not stated) [Phenoxybenzamine hydrochloride],1 ± 0.025,0.998 ± 0.021,1.01 ± 0.011,1.01,1.006 ± 0.0063,1.01
CC(COc1ccccc1)N(CCCl)Cc1ccccc1 (configuration not stated) [Phenoxybenzamine HCl],1.01 ± 0.018,1.033 ± 0.0058,1.03 ± 0.025,1.05 ± 0.015,1.005 ± 0.0087,1.01
